{"source": "PubChem BioAssay AID686979", "about": "(National Center for Advancing Translational Sciences (NCATS), 2013)", "note": "Hit rate of the full screen: of about 420,000 compounds, about 50,000 (12%) were called active. This list was built around the results that the source calls inconclusive (neither active nor inactive); the mix of calls is not that of the screen. Calls come from the whole dose curve; as a rule, active = well fitted inhibition curve with a large enough effect; inconclusive = small, poorly fitted or top-dose-only effect; inactive = flat fitted curve, though single readings scatter. Potencies of inconclusive entries are left out as doubtful fits. % is set by controls: 0 for no effect and ±100 for the full control effect; potency is the fitted concentration of half-maximal effect; tags give direction and shape of the fitted curve."}
{"assay": "qHTS for Inhibitors of human tyrosyl-DNA phosphodiesterase 1 (TDP1): qHTS in cells in presence of CPT; note: nearly all actives have a fitted effect of over 55% in size", "settings": "chicken DT40 Tdp1-/-;hTDP1 cells + 20 nM CPT, ATP luminescence, 48 h; activity change, negative = growth inhibition: at 46.2 µM (top of the series) unless noted", "in_short": "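Chicken DT40 Tdp1-/- cells complemented with human TDP1, 400 cells/well, exposed to compounds plus 20 nM camptothecin for at least 48 h at 37 C; viability read as ATP content by CellTiter-Glo luminescence.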"}
{"smiles": "C[C@H](O)[C@@H]1C(=O)N2CCc3c([nH]c4ccccc34)[C@@H]2C[C@@H]1N(C)S(=O)(=O)c1ccccc1", "Potency": "inconclusive [inhibitor, single point]"}
{"smiles": "Cc1c(C=O)c2ccccn2c1C(=O)c1ccc(Cl)c([N+](=O)[O-])c1", "Potency": "inconclusive [inhibitor, single point]"}
{"smiles": "O=c1cc(O)sc2ccccc12", "activity change, negative = growth inhibition": "inactive: -7.19%"}
{"smiles": "O=C(Nc1ccc2nc(SCc3ccccc3)sc2c1)c1ccccc1F", "Potency": "active: 16.4 µM"}
{"smiles": "COc1cc2c3c(c1OC)C1(C=CC(=O)C=C1)CC3N(C(=O)CCC(=O)O)CC2", "note": "(stereo not drawn)", "Potency": "inconclusive [inhibitor, single point]"}
{"smiles": "COc1ccccc1-n1c(SC(C)C(=O)NCC2CCCO2)nc2cc(Cl)ccc2c1=O", "note": "(stereo not drawn)", "activity change, negative = growth inhibition": "inactive: -22.4%"}
{"smiles": "CN1CCc2nc3sc(C(=O)NCc4ccccc4)c(N)c3cc2C1", "Potency": "inconclusive [inhibitor, single point]"}
{"smiles": "Cc1csc(=O)n1CC(=O)Nc1ccc(Cl)cc1F", "Potency": "inconclusive [inhibitor, full curve]"}
{"smiles": "NCCCCCc1nnc(SCc2ccc(Cl)c(Cl)c2)o1", "activity change, negative = growth inhibition": "inactive: 1.46%"}
{"smiles": "COc1ccccc1Cc1c(-c2cccc(Cl)c2)nc2ccc(Cl)cn12", "Potency": "active: 23.1 µM"}
{"smiles": "Cc1ccc(NC(=S)Nc2cccc3cnccc23)cc1C", "activity change, negative = growth inhibition": "inconclusive: -31.2% [inhibitor]"}
{"smiles": "Fc1cccc(NC(=S)NCc2ccc(Cl)cc2)c1", "Potency": "inconclusive [inhibitor, single point]"}
{"smiles": "CCCCCCn1c(N(CC)CC)nc2c1c(=O)[nH]c(=O)n2C", "Potency": "inconclusive [inhibitor, single point]"}
{"smiles": "COCCN1C[C@@H](CO)O[C@@H](n2cnc3c(NCc4ccncc4)ncnc32)C1", "Potency": "inconclusive [inhibitor, full curve, poor fit]"}
{"smiles": "COCCCN1C(=O)C(CC(=O)NCCCCc2ccccc2)CC(C(=O)N(C(C)C)C(C)C)=C1C", "note": "(stereo not drawn)", "Potency": "inconclusive [inhibitor, single point]"}
{"smiles": "CCOC(=O)c1ccc(NC(=O)c2ccc3c(c2)C(=O)N(CC2CCCO2)C3=O)cc1", "note": "(stereo not drawn)", "Potency": "inconclusive [inhibitor, single point]"}
{"smiles": "CC(C)c1ccc(C2N3CC4([N+](=O)[O-])CN2CC([N+](=O)[O-])(C3)C4(C)C)cc1", "note": "(stereo not drawn)", "Potency": "active: 8.2 µM"}
{"smiles": "Cc1cccc(NC(=O)C2CCN(S(=O)(=O)c3c(C)noc3/C=C/c3ccco3)CC2)n1", "Potency": "active: 16.4 µM"}
{"smiles": "COc1ccc(Cl)cc1NC(=O)Cn1c(=O)n2nc(C)nc2c2ccccc21", "Potency": "inconclusive [inhibitor, single point]"}
{"smiles": "CC(=O)Nc1ccc(NC(=O)C2CCN(c3c(Cc4ccccc4)c(C)nc4ncnn34)CC2)cc1", "Potency": "inconclusive [inhibitor, single point]"}
{"smiles": "Cc1cc(C)cc(N2CC(C(=O)Nc3cc(C)on3)CC2=O)c1", "note": "(stereo not drawn)", "activity change, negative = growth inhibition": "inactive: 10.1%"}
{"smiles": "O=C(NC1CCCC1)C(c1ccc(F)cc1)N(Cc1ccc(F)cc1)C(=O)CCl", "note": "(stereo not drawn)", "Potency": "active: 3.26 µM"}
{"smiles": "CCOC(=O)CCC(=O)Nc1ccc(S(=O)(=O)Nc2cc(OC)nc(OC)n2)cc1", "activity change, negative = growth inhibition": "inactive: 1.3%"}
{"smiles": "CC(=O)N1CCC(CCCC2CCN(C(C)=O)CC2)CC1", "activity change, negative = growth inhibition": "inactive: -22.5%"}
{"smiles": "CC1CC(C)CN(C(CCc2ccccc2)C(=O)NC2CCCCC2)C1", "note": "(stereo not drawn)", "Potency": "inconclusive [inhibitor, partial curve]"}
{"smiles": "Cn1c(N=NC(=O)c2ccccc2)c(O)c2ccccc21", "Potency": "inconclusive [inhibitor, single point]"}
{"smiles": "Cc1nnc(N2CCCC(C(=O)NCc3ccccc3F)C2)c2nn(-c3ccc(Cl)cc3)c(C)c12", "note": "(stereo not drawn)", "Potency": "inconclusive [inhibitor, single point]"}
{"smiles": "Nc1[nH]c(C(=O)c2ccccc2)c(-c2ccc(Br)cc2)c1C(=O)NCCc1c[nH]c2ccccc12", "Potency": "inconclusive [inhibitor, single point]"}
{"smiles": "CC(=O)N1CCN(S(=O)(=O)c2cccc(C(=O)Nc3nc4c(s3)CCCC4)c2)CC1", "Potency": "inconclusive [inhibitor, partial curve]"}
{"smiles": "Cc1[nH]c2ccccc2c1C(C[N+](=O)[O-])c1ccco1", "note": "(stereo not drawn)", "Potency": "inconclusive [inhibitor, single point]"}
{"smiles": "COc1cccc(-c2nn(-c3ccc(C)cc3)cc2C(=O)N(C)CC(=O)Nc2cccc(F)c2)c1", "Potency": "active: 18.4 µM"}
{"smiles": "O=C(CC1CC2CCC1C2)N1CCN(S(=O)(=O)c2ccccc2F)CC1", "note": "(stereo not drawn)", "Potency": "inconclusive [inhibitor, partial curve, poor fit]"}
{"smiles": "O=C(Nc1cccnc1)c1ccc(Br)c(S(=O)(=O)N2CCCC2)c1", "Potency": "inconclusive [inhibitor, single point]"}
{"smiles": "CCN(CC)S(=O)(=O)c1ccc2c(c1)nc(CCC(=O)Nc1cccc(C(F)(F)F)c1)n2CC", "Potency": "active: 29.1 µM"}
{"smiles": "Cc1ccc(-n2nnc(-c3nsc(NC(=O)c4cccc(Cl)c4)n3)c2C)cc1C", "Potency": "active: 5.8 µM"}
{"smiles": "Cc1cccc(NC(=O)c2cc(-c3ccc(C)s3)nc3ccccc23)n1", "Potency": "active: 18.4 µM"}
{"smiles": "CCCC(=O)Nc1ccc(Cl)c(NC(=O)c2cccc(OC)c2)c1", "Potency": "inconclusive [inhibitor, single point]"}
{"smiles": "O=C(CSc1n[nH]c(-c2ccccc2)n1)NCCCc1ccccc1", "Potency": "inconclusive [inhibitor, single point]"}
{"smiles": "COc1ccc(CCNC(=O)C2CCN(S(=O)(=O)c3ccc(NC(C)=O)cc3)CC2)cc1OC", "activity change, negative = growth inhibition": "inactive: -4.34%"}
{"smiles": "CC(C)(C)c1ccc(OCC(=O)O/N=C(\\N)c2ccncc2)cc1", "activity change, negative = growth inhibition": "inactive: -24.7%"}
{"smiles": "O=C(C1CCCCC1)N1C[C@H](O)[C@@H](n2cc(-c3ccc(F)cc3)nn2)C[C@@H]1c1ccccc1", "Potency": "inconclusive [inhibitor, single point]"}
{"smiles": "COc1cc(Cl)c(C)cc1NC(=O)c1ccc2c(SCC(=O)O)c3c(nc2c1)CCCC3", "Potency": "inconclusive [inhibitor, single point]"}
{"smiles": "Cc1ccc(S(=O)(=O)N2[C@H](CC(=O)OCc3ccccc3)OC[C@@H]2C(C)C)cc1", "Potency": "active: 20.6 µM"}
{"smiles": "CC(=O)N1CCC[C@H]1C(=O)NCC1Cc2cc(-c3cccc(OC(F)(F)F)c3)ccc2O1", "note": "(stereo partly drawn)", "Potency": "inconclusive [inhibitor, single point]"}
{"smiles": "Cc1cc(C)nc(-n2nc(C)cc2NC(=O)c2ccc(F)cc2F)n1", "Potency": "active: 4.11 µM"}
{"smiles": "Cc1ccc(-c2nc3cccnc3s2)cc1NS(=O)(=O)c1ccc2c(c1)OCCO2", "Potency": "inconclusive [inhibitor, single point]"}
{"smiles": "Cc1ccc(S(=O)(=O)N2CCCCC2)cc1NC(=O)Cn1cnnn1", "activity change, negative = growth inhibition": "inactive: -2.49%"}
{"smiles": "COc1ccc(C(=O)NCc2nnc(SCC(=O)Nc3ccccc3)n2-c2ccccc2)cc1", "Potency": "inconclusive [inhibitor, single point]"}
{"smiles": "CCCN1CCC(NC(=S)Nc2cccc(Cl)c2Cl)CC1", "Potency": "active: 18.4 µM"}
{"smiles": "COc1ccc(NS(=O)(=O)c2cc(NC(=O)Cc3c(F)cccc3Cl)ccc2OC)cc1", "Potency": "inconclusive [inhibitor, partial curve, poor fit]"}
{"smiles": "O=C(CSCc1cccc(F)c1)N1CCN(c2ccccc2)CC1", "Potency": "inconclusive [inhibitor, single point]"}
{"smiles": "Fc1ccc(-c2ccc3c(c2)C2CC3CCN2Cc2ccc3c(c2)OCO3)cc1", "note": "(stereo not drawn)", "Potency": "inconclusive [inhibitor, single point]"}
{"smiles": "COc1cccc(Cn2c(=O)c(-c3cc(F)cc(F)c3)nc3cnc(N4CCNCC4)nc32)c1", "Potency": "inconclusive [inhibitor, single point]"}
{"smiles": "COC(=O)c1sc(NC(=O)c2oc3ccccc3c2C)nc1C", "Potency": "inconclusive [inhibitor, partial curve]"}
{"smiles": "O=C(c1cnn2c(C(F)(F)F)cc(-c3ccccc3)nc12)N1CCCc2ccccc21", "activity change, negative = growth inhibition": "inconclusive: -32.2% [inhibitor]"}
{"smiles": "Cc1ccc2nccc(C(=O)N3CCCC(Nc4ccc(C)c(C)c4)C3)c2c1", "note": "(stereo not drawn)", "Potency": "inconclusive [inhibitor, single point]"}
{"smiles": "Cc1ccc(C)c(CC(=O)N2CCCC(c3cc(C(=O)NCc4cccnc4)no3)C2)c1", "note": "(stereo not drawn)", "Potency": "inconclusive [inhibitor, partial curve]"}
{"smiles": "COc1ccc(-c2nc3cc(C(C)C)ccc3o2)cc1NC(=O)COc1ccc(C)cc1C", "Potency": "active: 6.51 µM"}
{"smiles": "CCN(CC)CCNC(=O)c1ccc2c(c1)NC(=O)C(CS(=O)(=O)Cc1cccc(Br)c1)N2", "note": "(stereo not drawn)", "Potency": "inconclusive [inhibitor, single point]"}
{"smiles": "COc1ccc(NC(=O)CSc2ncccc2C(=O)O)cc1OC", "activity change, negative = growth inhibition": "inactive: 4.76%"}
{"smiles": "CCNC(=O)c1ccc2nc(-c3ccccc3)c(-c3ccccc3)nc2c1", "Potency": "active: 11.2 µM"}
{"smiles": "O=c1[nH]c(NC2CCCCC2)c([N+](=O)[O-])c(=O)[nH]1", "activity change, negative = growth inhibition": "inactive: -4.77%"}
{"smiles": "COc1ccc(CCNC(=S)NCc2cccs2)cc1OC", "Potency": "inconclusive [inhibitor, single point]"}
{"smiles": "COc1cc(C(=S)N2CCN(c3ccccc3Cl)CC2)cc(O)c1O", "Potency": "inconclusive [inhibitor, single point]"}
{"smiles": "CC(=O)c1sc2c(c1OC(=O)c1ccccc1)c(=O)n(-c1ccccc1)c(=S)n2-c1ccccc1", "activity change, negative = growth inhibition": "inactive: -29.5%"}
{"smiles": "Nc1nonc1C(=O)N/N=C/c1cc(Br)ccc1O", "Potency": "active: 0.92 µM"}
{"smiles": "C=CCC[C@@H](Cc1ccc(F)cc1)C(=O)OC[C@@H](NC(=O)[C@@H](CC=C)CC(=O)N[C@H](CO)Cc1ccccc1)C(C)(C)C", "Potency": "active: 23.1 µM"}
{"smiles": "N/C(=N\\OC(=O)COc1ccc(Cl)cc1Br)c1cccnc1", "activity change, negative = growth inhibition": "inactive: -2.01%"}
